Biological target: T1, HLA-A2 on the cell surface (HLA-A2 transfected T2 cell line; SNB19 glioma cells) (human)
T1 construct: whole, on cells; Class I MHC on cells; also called HLA-A*0201
Test: T2 cell HLA-A2 stabilisation, flow cytometry, peptide 1 nM overnight
Method: The binding capability of these modified peptides was assessed using an HLA-A2 transfected T2 cell line. Aliquots of T2 cells were incubated with modified peptides or IL-13Rα2₃₄₅₋₃₅₃ at 1 nM overnight, and then examined for the surface expression levels of HLA-A2 on T2 cells by flow cytometry. Since stable binding of HLA-A2 with peptide epitopes further stabilizes the surface expression of HLA-A2 (Francini et al., 2002; Alves et al., 2003), quantitative expression levels of HLA-A2, which is indicated by Mean Fluorescence Intensity (MFI) in Table 1, correlate with the binding affinity of the peptide-epitopes that are co-incubated with the T2 cells.

Binding Index (MFI): 463 MFI
B1: IL-13Rα2-A1V9 peptide (W → A at P1, and I → V at P9) (peptide)
peptide: ALPFGFILV
notes: Synthetic modified peptide; also called IL-13Rα2345-353:1A9V

— patent US20160114017A1 (UNIVERSITY OF PITTSBURGH OF THE COMMONWEALTH SYSTEM OF …, published 2016)
